Measurements as given in PubChem BioAssay AID686978 (National Center for Advancing Translational Sciences (NCATS), 2013).
Screen size: about 420,000 compounds; about 64,000 (15%) were called active. This list was built around the results that the source calls inconclusive (neither active nor inactive); the mix of calls is not that of the screen. Calls come from the whole dose curve; as a rule, active = well fitted inhibition curve with a large enough effect; inconclusive = small, poorly fitted or top-dose-only effect; inactive = flat fitted curve, though single readings scatter. No potency is given beside an inconclusive call; the fits are too rough.

experiment: qHTS for Inhibitors of human tyrosyl-DNA phosphodiesterase 1 (TDP1): qHTS in cells in absence of CPT; settings: DT40 Tdp1-/- hTDP1 cells, no CPT, ATP luminescence, 48 h; activity change, negative = growth inhibition: at 46.2 µM (top of the series) unless noted; note: nearly all actives have a fitted effect of over 55% in size
Outline: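 Cells were dispensed at 400 per well, compounds added by pin tool, plates incubated ≥48 hr at 37 °C, then CellTiter-Glo added for 30 min at room temperature before luminescence reading. Line: DT40 Tdp1-/- complemented with hTDP1; camptothecin omitted.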
% is set by controls: 0 for no effect and ±100 for the full control effect; potency is the fitted concentration of half-maximal effect; tags give direction and shape of the fitted curve.

Compound	Potency	activity change, negative = growth inhibition
CCOC(=O)c1cc(-c2ccccc2)n(CC(=O)Nc2cccc(OC)c2)c1C	active: 5.8 µM	–
COc1cccc(N2CCN(C(=O)c3cccn3-c3nnc(N4CCCCC4)s3)CC2)c1	inconclusive [inhibitor, single point]	–
Oc1ccc(Br)cc1-c1cc(-c2ccccc2)n[nH]1	inconclusive [inhibitor, single point]	–
COc1ccc(CNC(=O)C/C(C)=N/NC(=O)COc2ccccc2)cc1	–	inactive: 14.2%
CCc1ccccc1N1C(=O)C(Cl)=C(N2CCOCC2)C1=O	–	inactive: -14.6%
CCC1CCCCN1CCCNC(=O)c1cn(C)c2ccc(S(=O)(=O)N(C)C3CCCCC3)cc2c1=O (stereo unspecified)	inconclusive [inhibitor, partial curve, poor fit]	–
COC(=O)c1ccc(CS(=O)(=O)c2ccc(C)cc2)cc1	inconclusive [inhibitor, single point]	–
CCCCCC(=O)NC(=S)NNC(=O)c1ccc([N+](=O)[O-])cc1	inconclusive [inhibitor, single point]	–
Oc1ccc(N=Nc2n[nH]c(-c3ccc(Cl)cc3)n2)cc1	active: 16.4 µM	–
CC(C)c1ccc(NC(=O)C2CC2c2ccccc2)cc1 (stereo unspecified)	–	inactive: -4.73%
Cc1nn(Cc2ccccc2)c2c1C(c1ccncc1)C(C#N)=C(N)O2 (stereo unspecified)	active: 23.1 µM	–
Cc1ccc(-c2[nH]nc3c2C(c2ccsc2)C(C#N)=C(N)O3)cc1 (stereo unspecified)	–	inactive: -27.7%
COc1ccc(C(=O)NN=C(Cc2ccccc2)Cc2ccccc2)cc1OC	inconclusive [inhibitor, single point]	–
Nc1nc(-c2ccc(F)cc2)cc(C(F)(F)F)n1	–	inactive: -3.09%
O=C(Cc1ccc(F)cc1)c1ccc(O)cc1O	inconclusive [inhibitor, full curve, poor fit]	–
CC1CCC(C(C)C)C(=O)/C1=C/c1ccc(N)cc1 (stereo unspecified)	active: 13 µM	–
CCNc1nc(SCCOc2ccc(Cl)cc2Cl)nc(N(C)C)n1	inconclusive [inhibitor, partial curve]	–
Cc1sc2nc(C(C)C)nc(SCC(=O)N3c4ccccc4CC3C)c2c1C (stereo unspecified)	inconclusive [inhibitor, single point]	–
Cc1cccc(NC(=O)c2cccc(S(=O)(=O)N3CCc4ccccc4C3)c2)n1	inconclusive [inhibitor, single point]	–
CCN(CC(=O)Nc1c(F)cccc1F)C(=O)c1ccc(N2CCCC2=O)cc1	–	inactive: -0.503%
Cc1cccc(NC(=O)CSc2nc3c([nH]c4ccccc43)c(=O)n2-c2cc(C)cc(C)c2)c1	inconclusive [inhibitor, single point]	–
Cc1c(Cl)cccc1NC(=O)Nc1c[nH]c(=O)[nH]c1=O	–	inactive: -0.848%
CCCCCCn1c(CN2CCN(C(=O)OCC)CC2)nc2c1c(=O)n(C)c(=O)n2C	inconclusive [inhibitor, single point]	–

Compound	Potency	activity change, negative = growth inhibition
Cc1ccc(S(=O)(=O)N2CCNC(=O)C2)c(C)c1	–	inactive: 3.25%
O=C(Oc1cccc(NC2=NS(=O)(=O)c3ccccc32)c1)c1cccnc1	–	inactive: -28%
O=C(O)/C=C/C(=O)NCc1cn(-c2ccccc2)nc1-c1cccc(Br)c1	–	inactive: -1.74%
COc1cc(/C=N/NC(=O)Cc2ccccc2)cc(OC)c1OC	–	inactive: -8.58%
CCC(=O)N1CCc2cc(OC)c(OC)cc2C1COc1ccc(F)cc1 (stereo unspecified)	–	inconclusive: -30.5% [inhibitor]
Cc1ccc(C)c(NC(=O)COC(=O)Cc2ccsc2)c1	inconclusive [inhibitor, single point]	–
CC(=O)c1ccc(NC(=O)N[C@@H](Cc2ccccc2)C(=O)O)cc1	–	inactive: -2.61%
O=C(c1cccc(S(=O)(=O)N2CCCC2)c1)N1CCN(S(=O)(=O)c2cccc(Cl)c2)CC1	inconclusive [inhibitor, single point]	–
CC(C)(C)OC(=O)NCCCCCNC(=O)c1nc[nH]c1C(=O)N1CCN(C(=O)OC(C)(C)C)CC1	active: 16.4 µM	–
CC(C)(C)c1ccc(-c2noc(C(=O)NN)n2)cc1	inconclusive [inhibitor, single point]	–
COc1ccc(C2=NOC(Cn3nc(C(=O)NCc4ccc(C)cc4)cc3-c3ccccc3)C2)cc1 (stereo unspecified)	active: 20.6 µM	–
COc1cc2c(c(OC)c1OC)-c1c(cc(OC)c(OC)c1OC)C[C@H](C)[C@H](C)C2	inconclusive [inhibitor, single point]	–
COc1ccccc1C1CN(CCNC(=O)c2cscn2)Cc2ccccc2O1 (stereo unspecified)	inconclusive [inhibitor, partial curve, poor fit]	–
CCOC(=O)C1=C(CN2CCC(C)CC2)NC(=O)NC1c1ccc(OC(C)C)cc1 (stereo unspecified)	inconclusive [inhibitor, single point]	–
O=C(NCC(c1ccco1)N1CCCC1)c1cccc(S(=O)(=O)Nc2ccc(F)cc2)c1 (stereo unspecified)	inconclusive [inhibitor, partial curve]	–
Cc1c(C(=O)Nc2nccs2)oc2ccccc12	inconclusive [inhibitor, partial curve]	–
CCN1CCN(c2ncc3c(n2)CC(c2ccc(OC)c(OC)c2)CC3=O)CC1 (stereo unspecified)	active: 14.6 µM	–
COc1ccc(NC(=O)C(c2ccccc2F)n2c(=O)c(-c3ccco3)nc3ccccc32)cc1 (stereo unspecified)	inconclusive [inhibitor, partial curve]	–
CCC(C)C(NC(=O)OC(C)(C)C)C(=O)NC(C(=O)NC(C)C(N)=O)C(C)C (stereo unspecified)	–	inactive: -4.37%
Cc1ccc(CSCCNC(=O)c2cccc([N+](=O)[O-])c2)cc1	inconclusive [inhibitor, partial curve]	–
CCOC(=O)c1sc(NC(=O)CSc2n[nH]c(C)n2)nc1C	inconclusive [inhibitor, single point]	–
CNC(=O)COC(=O)c1ccccc1C(=O)c1ccc(Cl)c([N+](=O)[O-])c1	inconclusive [inhibitor, single point]	–
O=C(CSc1nn(-c2ccc(F)cc2)c(=S)s1)NC(=O)NCc1ccco1	–	inactive: -3.12%
